For 22 molecules, binding signal results are on record in paper PMC12136788.

To fix the notation:
T1: UNK ZnF1-3 (human, UniProt Q9C0B0 31-174)
T1 sequence: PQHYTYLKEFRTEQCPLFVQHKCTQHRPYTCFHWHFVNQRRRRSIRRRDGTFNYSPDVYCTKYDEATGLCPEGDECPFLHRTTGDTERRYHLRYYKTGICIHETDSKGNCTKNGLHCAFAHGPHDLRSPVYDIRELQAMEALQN

B1: chr1:82725849:82725850:+_ENSMUSG00000026150_ENSMUST00000078332|mus_mus|FALSE|FALSE (ssRNA)
RNA: GGGAGUUCUACAGUCCGACGAUCGGACCCUCAUUCGCUGACUAAUACCUUCGGUGUAUUCCAUUUCAUACUGAAUUCGACUAAUUUCUGCCAUCUCAGCAGCAGUGGGAGAAGGAAAUGCUGCCCCACUCACCAAAUGUGAAACAACAGAGGAUUGAGCAUCA
B2: chr16:8621372:8621373:+_ENSMUSG00000057880_ENSMUST00000065987|mus_mus|FALSE|FALSE (ssRNA)
RNA: GGGAGUUCUACAGUCCGACGAUCUGUGGUUUUCUACAGUGAACUGUAUAUAUGCGUACAGAGAUAGAUAGGUACAGAUCUAUUAGUACAUGAAUGUGCACAGUUUUUCAUGGUUACUGAGCAUCAGUAAAAAUUAUAAAAAUACAACAGAGGAUUGAGCAUCA
B3: chr2:26491064:26491065:+_ENSMUSG00000036186_ENSMUST00000074240|mus_mus|FALSE|FALSE (ssRNA)
RNA: GGGAGUUCUACAGUCCGACGAUCGAAGUCCGCCAUGAGAAGUAUCUGGUCAACCAGCGCUGGCAGGGAAGGCAGGUCUCCUAAGUUAGCCUUGAGGAAGCUGAGGGUCAUCUCCCGGAACUCCUUGAUGGAAGUUCCCCUGGUCAACAGAGGAUUGAGCAUCA
B4: chr6:143133109:143133110:+_ENSMUSG00000030275_ENSMUST00000032413|mus_hu|FALSE|FALSE (ssRNA)
RNA: GGGAGUUCUACAGUCCGACGAUCUUUGGGGAUCCAGCCAUUGUGUGCAUGAAUAGCAUGGAUUUUAGCAAGCUGACGAGCUAUUAGCCUGAAAAUGGCUGGGUUGCAGACAUGCUUUGGAUCCAGUGCUUCUCCUUGUAUAAACAACAGAGGAUUGAGCAUCA
B5: chr7:34932688:34932689:-_ENSMUSG00000052997_ENSMUST00000102746|mus_hu|motif|central (ssRNA)
RNA: GGGAGUUCUACAGUCCGACGAUCAAGAAGCUUCUUUCUUGGGUUUGGUUGUUUAUUCAAAAAAAUUGUUCUGCACUGGUCGGUUUUUCCUGAUAAAAUCUUCAAUCCUUCCAAUACUAUCAACCCAGCAAUUACUGCAUUAGUCAACAGAGGAUUGAGCAUCA
B6: 37396510_37396630_546_CDS_ENSG00000082068_ENST00000265107|human|control|control (ssRNA)
RNA: GGGAGUUCUACAGUCCGACGAUCUUCUUCUUCAUUAAGAGGUGGAGGUAAAGGACCGAGGAUAUCUUCCUCCAUAAAAUUAACUGGUUUUCCUACCAUUUUAGGGGGUAAAGGAGGGCCAAUUAACUCAUCAUCAGAAGAGUCCAACAGAGGAUUGAGCAUCA
B7: chr4:97781865:97781866:+_ENSMUSG00000028565_ENSMUST00000075448|mus_hu|FALSE|FALSE (ssRNA)
RNA: GGGAGUUCUACAGUCCGACGAUCAAAAGCAAAAACACUGGCAACUGUUGGUGUUUCUUUUUUCCUGCUUGAUCACAACUGAAUAGUUUCCUGCUGCUUUCUGGACAAUGAAACAUGAACAAAAAUGUAACUUCGUGUAUUUAACAACAGAGGAUUGAGCAUCA
B8: 37025648_37030961_747_CDS_ENSMUSG00000040565_ENSMUST00000099494|mouse|control|control (ssRNA)
RNA: GGGAGUUCUACAGUCCGACGAUCUUCUUCAGUACUCAUUCCAAUUGCUUCUCCCAUAUUAAGUCCAAGUUUCUUCUGUAAUAAUUUCCGUUGGCGUGCUAUCCUCUCUUUAGGAUCCACUUCACCUGAUUUUUCAUCUUGGACCAACAGAGGAUUGAGCAUCA
B9: 47153109_47156016_533_CDS_ENSG00000197380_ENST00000391916|human|control|control (ssRNA)
RNA: GGGAGUUCUACAGUCCGACGAUCAGCGCUGGGACUGGCGUCUCCUAGGGACUUGGGCCUCUCACUGGCAUAGAUGCCCCGGGGCUCAGAGGGACCCAGGCGACCAUAGGAGCUGGAUCCAGAGAAGCCACUGUCCCCACAGAACAACAGAGGAUUGAGCAUCA
B10: 113923534_113924362_1485_CDS_ENSG00000119927_ENST00000348367|human|control|control (ssRNA)
RNA: GGGAGUUCUACAGUCCGACGAUCAAUGGACGUGUCUCUACCUUCAUCAGCAGCAUCACUGGGUCUUGAAGGAAGUAUAGCUGGUAACAACGCUUGCUCCAGGGAAAGUAGAGCAGACACCGGUUUCUGACUUUGGCUUUCUAACAACAGAGGAUUGAGCAUCA
B11: chr4:44140560:44140561:-_ENSMUSG00000035696_ENSMUST00000045793|mus_hu|FALSE|FALSE (ssRNA)
RNA: GGGAGUUCUACAGUCCGACGAUCUAGAAGUAUUUCUGAUGCACUGACAACCCUAGGGGCAAACACAGUAUGCAAAACCCUACUUGUAGGACUAGAUAGAGGCAACAAUGUCUCGCAAAGGGCAAAAUUGUGCUUCUGUGAAUUCAACAGAGGAUUGAGCAUCA
B12: 95906523_95907620_660_CDS_ENSMUSG00000006058_ENSMUST00000006217|mouse|control|control (ssRNA)
RNA: GGGAGUUCUACAGUCCGACGAUCUUCACUGACAGUCACAUACCCGUUUUUCUCGGCCAGCUGCAGCACAACAGUGUGAUCCAUAUUGAGCUCAGCGGGAACAGACUGGAUGAGGUAAGUGCCUCCCACAGGGAUGAUGCCGAACAACAGAGGAUUGAGCAUCA
B13: 42866607_42871225_373_CDS_ENSG00000023516_ENST00000025301|human|control|control (ssRNA)
RNA: GGGAGUUCUACAGUCCGACGAUCAUUCAGAAUAUCUGGAAGUUCCAAAGAAACUGCAGCUAAAUCCUGUAUAUGAGCAGCAUCUGUCUCUUCAUUAAAACCCAGAAAUGUGACCUCAGUUAAAUUGGCAUGCUCAUCCUGCUGCAACAGAGGAUUGAGCAUCA
B14: chr2:65331917:65331918:-_ENSG00000138069_ENST00000409751|hu_hu|FALSE|FALSE (ssRNA)
RNA: GGGAGUUCUACAGUCCGACGAUCAUAACUGGAGGUGAUUGUUCGAAAUCUUUCCUGGCCUGCUGUGUCCCAUGCAAACCUAAGAAGAAGGCAAGACUUUCCAACCCCUGAGUCGCCAAUCAGAAGUAACUUGAAUAAAUAAUCCAACAGAGGAUUGAGCAUCA
B15: chr4:144460044:144460045:+_ENSG00000153147_ENST00000283131|hu_mus|hu_hu_hu_mus_False|8_98 (ssRNA)
RNA: GGGAGUUCUACAGUCCGACGAUCACGGUCCAUAGCCUGAAGAUCUACUUGCGGAUUCCAAUCUGAGUCAUAUAAAAUGACUACAUCAGCAGUUGCAAGAUUGAUGCCCAGACCACCAGCACGUGUGCUUAACAUGAAUACAAACAACAGAGGAUUGAGCAUCA
B16: chr5:64741823:64741824:+_ENSMUSG00000029174_ENSMUST00000119756|mus_hu|motif|central (ssRNA)
RNA: GGGAGUUCUACAGUCCGACGAUCGAAAUAUCUCAGACCCCACAACUGCAGCUCACAUGCUAGCAAUACCUGGUAGGGUCGGAAAGGUGUCAGCUGUCCCAUAAAGCAUUUACCUACUAUGACUUUGAUCAACUGUACUUAUGGCAACAGAGGAUUGAGCAUCA
B17: chr6:47494509:47494510:-_ENSMUSG00000029687_ENSMUST00000081721|mus_hu|motif|central (ssRNA)
RNA: GGGAGUUCUACAGUCCGACGAUCCCCAAUUAACCUAGCAAUGGCACAGAAAUUGUCAUAGUAAGUGCCAAUGAGGACUCGGAACAUUGAGGCUUCAGCACCACUCCACUCCACAUUCUCAGGAGGUUCAAUAUUUGGCUUCAUCAACAGAGGAUUGAGCAUCA
B18: chr7:151048522:151048523:+_ENSG00000013374_ENST00000566856|hu_mus|hu_hu_hu_mus_True|58_108 (ssRNA)
RNA: GGGAGUUCUACAGUCCGACGAUCCUGCUUCUUAUUUAUUACGAUCUUGAUGUAAUUUUCUUGAAAUCCGAAAGUUUCAGCUAUUUUACACCUCAGGUCUCUACCAGUGACAUGCAAGCGGGUCUCCAACAAGCUUUUCUUAUCCAACAGAGGAUUGAGCAUCA
B19: chr11:119138191:119138192:+_ENSMUSG00000025579_ENSMUST00000026666|mus_mus|FALSE|FALSE (ssRNA)
RNA: GGGAGUUCUACAGUCCGACGAUCCCCAGUCUCGUUGGUGAUGAACACGCCCCUCCGCAGACCCUCGUCGUAGGGCCUGUAACUCCCAGCAGGGCCUGCGCUGCUGAUGGCAGGGUCCACGAUCAUCAUGUAGCGCCGGCCAUCCAACAGAGGAUUGAGCAUCA
B20: chr4:148551591:148551592:-_ENSMUSG00000063077_ENSMUST00000060537|mus_hu|mus_mus_mus_hu_False|18_108 (ssRNA)
RNA: GGGAGUUCUACAGUCCGACGAUCACCUUACAAAAUUAAAUAUCCCUGUAAAUUAGACAAUAAGCAGCAGGCAACAAAGUCUUUGCUUUGGAAUAUGUGCCAGGAAAAGUCAUCUUGUAGACCCCAAUCAAGAGACAGUUCACACAACAGAGGAUUGAGCAUCA
B21: chr1:163117127:163117128:-_ENSG00000143248_ENST00000313961|hu_mus|hu_hu_hu_mus_False|58_58 (ssRNA)
RNA: GGGAGUUCUACAGUCCGACGAUCUGCUACAAAGGAUGUAACUCAACUCACAGGGCAACUUUUGGAAGCCUGACCAGAUUACUACUUGAUUAGCUCCUUAUAAAAUUCAGAGCGCACAAAGCGGGGCAGAGAAUCCUUCUCCAUCAACAGAGGAUUGAGCAUCA
B22: chr2:179515052:179515053:+_ENSMUSG00000000305_ENSMUST00000000314|mus_hu|mus_mus_mus_hu_False|58_98 (ssRNA)
RNA: GGGAGUUCUACAGUCCGACGAUCGCUGUCCCAUGCAGUGACGGUAAACGCCACCUGCUCGGAGGGGACCUGCAGCUCCCUAGUGGCGAAGACUGUCCCAUCUGCCCCAACUUUGAAGUCCAUGCUGUUGGUCUCAUAUUGUGUCAACAGAGGAUUGAGCAUCA

Some of the results follow.

In the experiment the target is T1, UNK ZnF1-3. As to the kind of experiment: nsRBNS (natural sequence RNA bind-n-seq); RBNS binding buffer (assumed for nsRBNS): 25 mM Tris pH 7.5, 150 mM KCl, 3 mM MgCl2, 0.01% Triton X-100, 500 ug/ml BSA, 20 U/ml SUPERase-In, 4 C; UNK is unkempt and MSI1 is Musashi-1; names of the RNAs are library labels; protein concentration not given here; high values mean tight binding.
With B1, the binding signal amounted to 1.04 enrichment R.

B2: the binding signal stood at 2.87 enrichment R.

As for B3, the binding signal is 1.07 enrichment R.

With B4, the binding signal stood at 0.596 enrichment R.

As to B5, the binding signal is 0.812 enrichment R.

In the case of B6, the binding signal was 0.66 enrichment R.

Take B7: the binding signal came to 0.907 enrichment R.

In turn, B8 registered a binding signal of 0.481 enrichment R.

Regarding B9, the binding signal worked out at 0.576 enrichment R.

The molecule B10 came in with a binding signal of 1.08 enrichment R.

B11 returned a binding signal of 0.911 enrichment R.

B12: the binding signal came to 1.35 enrichment R.

Molecule B13 came in with a binding signal of 1.5 enrichment R.

Regarding B14, the binding signal stood at 1.46 enrichment R.

In turn, B15 yielded a binding signal of 1.04 enrichment R.

B16: the binding signal amounted to 0.55 enrichment R.

As to B17, the binding signal was 1.31 enrichment R.

In the case of B18, the binding signal is 0.695 enrichment R.

As to B19, the binding signal is 0.711 enrichment R.

B20 displayed a binding signal of 1.45 enrichment R.

With B21, the binding signal stood at 1.13 enrichment R.

B22 returned a binding signal of 0.724 enrichment R.
